Data on 66 compounds can be found in PubChem BioAssay AID1347073 (National Center for Advancing Translational Sciences (NCATS), 2019).

Screen size: about 45,000 compounds; about 200 (0.44%) were called active. Another 7% or so got no clear call; they are omitted. The call rests on the fitted dose curve; in most records, active means well fitted activation curve with a large enough effect; inconclusive means small, poorly fitted or top-dose-only effect; inactive means no such curve, though single readings can be large or run the other way. The list shows a part of the results.

A short description of the test: qHTS of TDP-43 Inhibitors: NCGC Sytravon Library Screen. Further: 0% is about no effect; nearly all actives have a fitted effect of over 55% in size. The conditions noted are these: yeast TDP-43 toxicity rescue, BacTiter-Glo growth, 24 h; series mostly up to 46.1 µM; growth rescue (activation): at the top concentration. The method, boiled down: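 TDP-43-expressing yeast, pregrown in raffinose, seeded at OD600 0.02 in galactose medium with compound for 24 hr at 30 deg C. Growth read by BacTiter-Glo luminescence, so rescue of toxicity appears as activation.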
(qHTS replaces the single test concentration by a dilution series.)
As to `CC(C)c1ccc(NC(=O)COc2ccccn2)cc1`, the “growth rescue (activation)” value is inactive: -12%.

Consider `COc1ccc2[nH]c(=O)c(CNc3ccc(C)cc3C)cc2c1`, for which the “growth rescue (activation)” value was inactive: -10.1%.

On to `Cc1ccc(NC(=O)CCNC(=O)c2ccccc2)cc1F`, for which the “growth rescue (activation)” value was inactive: -10.9%.

Turning to `CCOc1cc(/C=C2\COc3ccccc3C2=O)ccc1OCC(=O)N(C)C`, the “growth rescue (activation)” value was inactive: 17.4%.

Consider `CCOc1ccc(C(=O)Nc2ccc(-c3nc4ccccc4[nH]3)cc2)cc1[N+](=O)[O-]`, for which the “growth rescue (activation)” value was inactive: 5.92%.

In the case of `COc1ccc(OC)c(NC(=O)CSc2nnnn2-c2ccccc2F)c1`, the “growth rescue (activation)” value was inactive: 5.68%.

Take `Cc1ccc(C)c(NC(=O)C(Sc2nc3ccc(C)cc3[nH]2)c2ccccc2)c1` (stereo unspecified): the “growth rescue (activation)” value was inactive: 19.5%.

With `COc1ccccc1CN1CC(C(=O)NCCn2nc(C)cc2C)CCC1=O` (stereo unspecified), the “growth rescue (activation)” value is inactive: 6.43%.

In the case of `O=C(NNC(=O)c1cc2ccccc2o1)c1ccc(F)cc1`, the “growth rescue (activation)” value was inactive: -16.7%.

As to `Nc1cc(=O)[nH]c(SCCSc2ccccc2F)n1`, the “growth rescue (activation)” value is inactive: -1.6%.

In the case of `COc1ccc(N2CC(C(=O)N3CCN(c4ccccc4F)CC3)CC2=O)cc1` (stereo unspecified), the “growth rescue (activation)” value was inactive: 15.7%.

Turning to `CCOc1ccc(C(=O)NC(=S)NCc2cccnc2)cc1`, the “growth rescue (activation)” value was inactive: 6.1%.

Consider `COC(=O)c1ccccc1NC(=O)COc1ccc2c(c1)OCO2`, for which the “growth rescue (activation)” value was inactive: 24.6%.

For the compound `CC1(C)Cc2[nH]c(=O)c(C#N)cc2CS1`, the “growth rescue (activation)” value is inactive: 12.8%.

As for `CCn1c(SCC(=O)NC2CCCCC2)nnc1C(C)NC(=O)c1ccccc1F` (stereo unspecified), the “growth rescue (activation)” value is inactive: -19.4%.

As for `COc1cccc(/C=C/C(=O)NNC(=O)c2ccccc2)c1OC`, the “growth rescue (activation)” value was inactive: 12.5%.

For `O=C(/C=C1\NC2(CCCC2)Cc2ccccc21)N1CCOCC1`, the “growth rescue (activation)” value is inactive: 3.4%.

Turning to `COc1cc(/C=C2\SC(=O)NC2=O)ccc1OCC(=O)N1CCOCC1`, the “growth rescue (activation)” value was inactive: 20%.

For `COc1ccc(C)cc1NC(=O)C1CCN(S(=O)(=O)c2cccc3nonc23)CC1`, the “growth rescue (activation)” value is inactive: -1.22%.

On to `NC(=O)c1cccc(-c2csc(C(O)c3ccccc3)n2)c1` (stereo unspecified), for which the “growth rescue (activation)” value is inactive: 13.1%.

`CCOc1ccc(NC(=S)N2CCC(NC(=O)c3ccccc3C)CC2)cc1`: the “growth rescue (activation)” value was inactive: 14%.

As to `CCOC(=O)Cn1c(-c2nonc2NC(=O)c2ccccc2F)nc2ccccc21`, the “growth rescue (activation)” value was inactive: -7.21%.

Regarding `Cc1nn(-c2ccccc2)c(C)c1CNC(=O)c1ccc(S(=O)(=O)NCc2ccco2)cc1`, the “growth rescue (activation)” value is inactive: 0.649%.

`CC[n+]1c(/C=C2/C=C(C)CC(C)(C)C2)sc2ccc(OC)cc21`: the “growth rescue (activation)” value was inactive: 14.8%.

For `C/C(=N\N=C(N)N)c1cccc([N+](=O)[O-])c1`, the “growth rescue (activation)” value was inactive: 0.778%.

For `Cc1ccc(NC(=O)CCNC(=O)c2ccccc2Cl)cc1S(=O)(=O)N(C)C`, the “growth rescue (activation)” value is inactive: 2.76%.

In the case of `CCN(CC)c1ccc(/C=N/NC(=O)c2cccc(N3CCCC3=O)c2)cc1`, the “growth rescue (activation)” value is inactive: 16.1%.

In the case of `CCN(CC)C(=O)c1sc(NC(=O)c2cccs2)c(C#N)c1C`, the “growth rescue (activation)” value is inactive: -0.754%.

Turning to `O=C(NCc1ccco1)c1cccn2c(=O)c3c4c(sc3nc12)CCCC4`, the “growth rescue (activation)” value is inactive: -8.59%.

As for `O=C(COC(=O)c1ccc2ccccc2n1)Nc1cccc(S(=O)(=O)NC2=NCCCCC2)c1`, the “growth rescue (activation)” value was inactive: -7.73%.

As to `CCCCOc1ccc(S(=O)(=O)NC(=O)C2(C)CCN2C(=O)c2cccc(F)c2)cc1` (stereo unspecified), the “growth rescue (activation)” value was inactive: 18.9%.

`C=CCn1c(SCC(=O)Nc2c(C)n(C)n(-c3ccccc3)c2=O)nnc1-c1cccnc1`: the “growth rescue (activation)” value was inactive: 2.6%.

For the compound `COc1cccc(-c2cc3nc(NCc4ccc(C)cc4C)n(C)c(=O)c3s2)c1`, the “growth rescue (activation)” value is inactive: 7.76%.

As to `O=C(CSc1n[nH]c(-c2cccnc2)n1)Nc1cccc(Cl)c1`, the “growth rescue (activation)” value was inactive: 16.2%.

Regarding `COc1ccc(OC)c(NC(=O)C2CCCN2C(=O)NC2CCCCC2)c1` (stereo unspecified), the “growth rescue (activation)” value is inactive: 5%.

Take `FC(F)(F)c1cccc(Cc2noc(CN3CCCC(CN4CCCC4)C3)n2)c1` (stereo unspecified): the “growth rescue (activation)” value is inactive: -2.73%.

For the compound `CC1CN(S(=O)(=O)c2ccc(C(=O)NN3CCN(C)CC3)cc2)CC(C)O1` (stereo unspecified), the “growth rescue (activation)” value was inactive: -12.2%.

Take `Cc1cccc(C(=O)Nc2ccc(N3CCN(S(C)(=O)=O)CC3)cc2)c1`: the “growth rescue (activation)” value is inactive: 6.4%.

With `CC(=O)N=C1SC2CS(=O)(=O)CC2N1Cc1ccc(C)cc1` (stereo unspecified), the “growth rescue (activation)” value was inactive: -3.98%.

Take `COc1ccc(NC(=O)CSc2ccc(NC(C)=O)cc2)cc1S(=O)(=O)N1CCOCC1`: the “growth rescue (activation)” value is inactive: -8.96%.

For the compound `COc1ccc(NC(=S)Nc2ccccn2)cc1`, the “growth rescue (activation)” value was inactive: 16.1%.

For `Cc1nn(-c2cc(C(F)(F)F)ccc2Cl)c2nc(C(Cl)(Cl)Cl)[nH]c(=O)c12`, the “growth rescue (activation)” value was inactive: 6.13%.

As to `CCN(CC)C(=O)Cn1c(=O)n(CCCCCC(=O)Nc2ccccc2)c(=O)c2sccc21`, the “growth rescue (activation)” value was inactive: 3.36%.

Take `CC(C)(C)NC(=O)COC(=O)c1ccc(Cl)nc1`: the “growth rescue (activation)” value is inactive: 5.42%.

Regarding `COc1ccc(Cl)cc1CC1(C)C(=O)Nc2ccc(-c3ccccc3OC)cc21` (stereo unspecified), the “growth rescue (activation)” value was inactive: 1.48%.

In the case of `CN(CCOC(=O)c1ccccc1)Cc1ccccc1`, the “growth rescue (activation)” value is inactive: 13.3%.

As to `CCOC(=O)N1CCN(C(=O)c2cn(C)c3ccc(S(=O)(=O)N4CCC(C)CC4)cc3c2=O)CC1`, the “growth rescue (activation)” value is inactive: -1.45%.

`COc1ccc(NC(=O)C2CCCN(S(=O)(=O)c3ccc(-n4cnnn4)cc3)C2)cc1` (stereo unspecified): the “growth rescue (activation)” value is inactive: 10.7%.

As to `COc1cc(NS(=O)(=O)c2ccc(NS(=O)(=O)c3ccccc3)cc2)nc(OC)n1`, the “growth rescue (activation)” value is inactive: -3.2%.

On to `CCOC(=O)c1sc2nc(-c3ccccc3)ccc2c1N`, for which the “growth rescue (activation)” value was inactive: 4.54%.

Regarding `COC(=O)N(NC(=O)C(O)(c1ccccc1)c1ccccc1)c1ccc(C)cc1`, the “growth rescue (activation)” value was inactive: 13.1%.

Take `CC1CC(C)(C)CC2(C1)NC(=O)N(CC(=O)N1CCN(S(=O)(=O)c3cccc(F)c3)CC1)C2=O` (stereo unspecified): the “growth rescue (activation)” value is inactive: -27.9%.

`O=C(c1cccc(C(=O)N(c2ccccn2)C2CCCCC2)c1)N(c1ccccn1)C1CCCCC1`: the “growth rescue (activation)” value is inactive: -0.383%.

Take `O=C(Nc1ccc(N2CCOCC2)cc1)c1ccc2ncsc2c1`: the “growth rescue (activation)” value is inactive: 31.2%.

On to `Cc1cccc(C)c1NC(=O)CCS(=O)(=O)c1ccc2c(c1)n(C)c(=O)c(=O)n2C`, for which the “growth rescue (activation)” value was inactive: -0.0214%.

For the compound `Cc1cc(Cl)ccc1OC(C)C(=O)NN=C1CCCCCC1` (stereo unspecified), the “growth rescue (activation)” value is inactive: -10.2%.

Regarding `O=C(CS(=O)(=O)c1ccccc1)N1CCc2ccccc21`, the “growth rescue (activation)” value is inactive: 10.2%.

As to `COc1cc2c(cc1NC(=O)c1ccc(C)c([N+](=O)[O-])c1)oc1ccccc12`, the “growth rescue (activation)” value was inactive: -32.7%.

Consider `O=C(NCCc1ccc(C(F)(F)F)cc1)C1COc2ccccc2O1` (stereo unspecified), for which the “growth rescue (activation)” value was inactive: 22.1%.

Regarding `CNC(=O)COc1ccc(S(=O)(=O)Nc2ccc(OC)cc2)cc1`, the “growth rescue (activation)” value is inactive: -26.1%.

As for `CN(C(=O)C1CCCCN1S(=O)(=O)c1ccccc1)c1ccccc1` (stereo unspecified), the “growth rescue (activation)” value was inactive: -5.45%.

For `COc1ccc(Cl)cc1NC(=S)N(Cc1ccccc1C)CC1CCC(C(=O)O)CC1` (stereo unspecified), the “growth rescue (activation)” value was inactive: 16.2%.

Regarding `COc1ccc(NC(=S)N2CCCN(Cc3cccc(Cl)c3)C2)cc1`, the “growth rescue (activation)” value was inactive: 6.03%.

In the case of `COc1cc(C2C(C#N)=C(C)NC(C)=C2C#N)cc(OC)c1OC`, the “growth rescue (activation)” value is inactive: 3.22%.

As to `COc1ccc(C2C(C#N)=C(N)OC3=C2C(=O)CCC3)cc1Cn1nc(C)c([N+](=O)[O-])c1C` (stereo unspecified), the “growth rescue (activation)” value is inactive: 3.19%.

Take `CNS(=O)(=O)c1cccc(C(=O)OCC(=O)Nc2cc(F)ccc2F)c1`: the “growth rescue (activation)” value is inactive: 5.59%.
